Results from the supplement of paper PMC12217912.
The other results are listed elsewhere or left out. The full chains were built here from the parent and the listed change. Inactive controls read about 0.05.

B1: TEV protease; numbered along this chain (parent)
chain: MGESLFKGPRDYNPISSSICHLTNESDGHTTSLYGIGFGPFIITNKHLFRRNNGTLVVQSLHGVFKVKDTTTLQQHLVDGRDMIIIRMPKDFPPFPQKLKFREPQREERICLVTTNFQTKSMSSMVSDTSCTFPSGDGIFWKHWIQTKDGQCGSPLVSTRDGFIVGIHSASNFTNTNNYFTSVPKNFMELLTNQEAQQWVSGWRLNADSVLWGGHKVFMVKPEEPFQPVKEATQL

Variants of: B1
Experiment: raw area under fraction-flipped curve 0-4 h after induction (AUC4h, not background-subtracted), DNA-recorder readout of cleavage of the substrate (dimensionless); higher = more cleavage of the substrate by the protease variant
Conditions: temperature: 34 °C; time window: 0-4 h after rhamnose induction
Method: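 In vivo DNA recorder in E. coli TOP10(DE3) ΔrhaA at 34 °C. Each TEVp single-site mutant (parent TEVp 0) is paired with a single-site variant of the 7-mer TEVs (canonical ENLYFQ|S). The substrate sits between flexible linkers in a Bxb1-sfGFP-TEVs-SsrA fusion, so cleavage stabilises Bxb1 and speeds flipping of a recombination array, read by NGS. The value is the raw area under the fraction-flipped curve over 0-4 h after rhamnose induction (AUC4h), with ≥20 reads per time point. It is not background-subtracted; inactive controls average about 0.047.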
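Also: Bxb1 expression induced with 0.2% (w/v) L-rhamnose at OD600 near 0.5, cultures sampled hourly, flipped fraction per protease–substrate barcode pair counted by paired-end Illumina sequencing.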

| Variant | area with substrate EALYFQS | area with substrate ECLYFQS | area with substrate EDLYFQS | area with substrate EGLYFQS | area with substrate ELLYFQS | area with substrate ESLYFQS | area with substrate EWLYFQS | area with substrate EELYFQS | area with substrate EMLYFQS | area with substrate EQLYFQS | area with substrate ERLYFQS | area with substrate ETLYFQS | area with substrate EVLYFQS | area with substrate EYLYFQS | area with substrate EILYFQS | area with substrate EKLYFQS | area with substrate EPLYFQS | area with substrate EHLYFQS | area with substrate EFLYFQS |
| --- | --- | --- | --- | --- | --- | --- | --- | --- | --- | --- | --- | --- | --- | --- | --- | --- | --- | --- | --- |
| L61S | 0.106 | 0.102 | 0.146 | 0.1 | 0.0953 | 0.0943 | 0.0793 | – | – | – | – | – | – | – | – | – | – | – | – |
| Q197S | 0.089 | 0.082 | – | 0.0888 | – | – | – | 0.132 | 0.072 | 0.117 | 0.101 | 0.0803 | 0.0825 | 0.101 | – | – | – | – | – |
| Q197P | 0.119 | 0.081 | 0.0499 | – | 0.0757 | – | 0.106 | – | – | – | – | 0.137 | 0.0943 | 0.0872 | 0.0591 | 0.119 | 0.11 | – | – |
| T181R | 0.051 | 0.0498 | 0.0527 | 0.0622 | – | 0.056 | 0.0349 | 0.0539 | 0.0532 | 0.0502 | 0.0583 | – | 0.0476 | 0.0578 | – | 0.0558 | – | 0.0199 | – |
| Q151A | 0.115 | 0.0903 | 0.118 | – | 0.0974 | – | 0.0719 | 0.102 | – | 0.123 | 0.12 | – | 0.0858 | 0.074 | – | 0.107 | 0.0968 | 0.119 | – |
| A207D | 0.127 | 0.118 | – | 0.102 | – | 0.102 | 0.132 | – | 0.129 | 0.128 | 0.116 | – | 0.106 | – | 0.0951 | 0.0949 | 0.122 | 0.134 | – |
| R102K | 0.134 | 0.102 | 0.145 | 0.0974 | 0.102 | 0.104 | 0.104 | – | 0.0956 | – | 0.119 | 0.122 | 0.0991 | 0.11 | 0.0995 | – | 0.158 | 0.105 | 0.0978 |
| V157Y | 0.084 | 0.0911 | 0.0965 | – | – | 0.0826 | – | 0.059 | – | 0.0885 | 0.0699 | 0.0865 | – | 0.0861 | 0.0663 | 0.0986 | 0.0956 | 0.085 | – |
| F41S | 0.0809 | 0.0694 | 0.0766 | 0.0819 | 0.0832 | 0.0499 | – | – | 0.0766 | 0.0848 | 0.0828 | 0.0923 | 0.0816 | 0.0797 | – | 0.0771 | 0.0848 | 0.0954 | 0.112 |
| E108L | 0.082 | 0.0573 | – | 0.0849 | – | 0.0565 | – | – | 0.0694 | – | 0.0741 | 0.0686 | 0.0776 | – | 0.0359 | – | – | – | 0.0543 |
| K185W | 0.17 | 0.107 | 0.115 | – | 0.079 | 0.112 | 0.0815 | 0.116 | 0.102 | 0.111 | 0.111 | – | 0.143 | – | 0.0938 | 0.111 | 0.141 | 0.15 | 0.0951 |
| K120R | 0.132 | 0.122 | 0.154 | – | 0.0815 | 0.102 | 0.0922 | 0.139 | – | 0.117 | 0.136 | 0.0855 | 0.0889 | – | 0.1 | – | 0.132 | 0.112 | 0.12 |
| M188D | 0.104 | 0.1 | 0.118 | – | – | 0.103 | – | 0.12 | – | – | 0.0858 | – | 0.105 | 0.117 | – | 0.101 | 0.142 | 0.108 | 0.0918 |
| I85G | 0.0583 | 0.0612 | 0.0471 | 0.0458 | 0.0508 | 0.058 | – | 0.057 | 0.0478 | – | – | – | – | 0.0574 | 0.06 | 0.0485 | 0.0544 | 0.0524 | – |
| V217G | 0.0687 | 0.061 | 0.0852 | – | – | – | – | – | – | – | 0.0757 | 0.0702 | 0.0592 | – | 0.0617 | 0.0648 | – | 0.058 | – |
| H76P | 0.0577 | 0.0573 | – | – | 0.0474 | 0.0641 | 0.0365 | 0.0617 | 0.0517 | 0.0541 | – | 0.0562 | – | 0.0533 | 0.0507 | 0.054 | 0.0766 | – | 0.003 |
| Q75T | 0.0988 | 0.0844 | – | – | 0.104 | 0.0898 | – | 0.105 | 0.0453 | 0.126 | – | – | 0.0874 | 0.0825 | 0.0774 | 0.0761 | – | – | 0.139 |
| Q75H | 0.0805 | 0.0707 | 0.0765 | 0.0677 | 0.0652 | 0.0755 | 0.0576 | 0.0809 | 0.0829 | 0.0699 | 0.0642 | 0.0689 | 0.0658 | 0.058 | 0.0587 | 0.0705 | 0.115 | 0.0759 | 0.0777 |
| I145H | 0.104 | 0.0934 | – | 0.122 | – | 0.0952 | – | 0.0969 | – | – | 0.114 | – | – | – | 0.0694 | 0.0684 | – | 0.0611 | – |
| G39P | 0.0374 | 0.0444 | 0.0431 | 0.0441 | – | 0.044 | 0.0489 | – | – | 0.018 | 0.05 | 0.0293 | 0.0448 | 0.0455 | – | – | 0.0399 | 0.0358 | 0.0454 |
| I42M | 0.119 | 0.111 | – | 0.114 | 0.0817 | 0.132 | – | 0.12 | 0.0815 | 0.133 | 0.093 | 0.118 | 0.0861 | – | 0.0833 | 0.11 | – | – | – |
| Q194K | 0.0948 | 0.101 | 0.116 | – | 0.0823 | 0.16 | 0.0995 | 0.128 | 0.111 | 0.13 | 0.0595 | 0.176 | 0.0929 | 0.169 | 0.0947 | 0.115 | 0.0788 | – | – |
| C111V | 0.139 | 0.0984 | – | 0.0983 | 0.105 | 0.0989 | – | 0.127 | 0.0956 | 0.109 | 0.074 | 0.122 | 0.0979 | 0.112 | 0.101 | – | 0.121 | 0.152 | 0.107 |
| K68N | 0.111 | 0.12 | – | – | 0.0754 | 0.0914 | 0.111 | 0.146 | 0.135 | – | 0.111 | – | 0.128 | – | 0.0813 | 0.0872 | 0.128 | 0.145 | – |
| L33E | 0.109 | 0.0613 | 0.0791 | 0.0573 | 0.0403 | 0.0672 | 0.115 | 0.0768 | 0.0805 | 0.0698 | 0.0677 | 0.0689 | 0.0678 | – | 0.0505 | 0.0702 | 0.069 | 0.0718 | – |
| L205R | 0.0658 | 0.059 | – | 0.0551 | – | 0.0737 | 0.0531 | – | 0.0634 | 0.0647 | 0.0616 | 0.059 | 0.0648 | 0.0528 | 0.0589 | – | – | 0.0682 | – |
